Assay results as given in PubChem BioAssay AID588342 (National Center for Advancing Translational Sciences (NCATS), 2011).
Among all 360,000 compounds or so, about 25,000 (6.9%) were called active. The shares of active, inactive and inconclusive entries below differ from those in the screen. The call rests on the fitted dose curve; in most records, active means well fitted inhibition curve with a large enough effect; inconclusive means small, poorly fitted or top-dose-only effect; inactive means flat fitted curve, though single readings scatter. A potency beside an inconclusive call is a rough fit, not a confirmed value.

Each compound was assayed against Luciferin 4-monooxygenase (Photinus pyralis) (UniProt P08659) (assay: qHTS profiling assay for firefly luciferase inhibitor/activator using purifed enzyme and Km concentrations of substrates (counterscreen for miR-21 project)). Conditions: purified FLuc, luminescence inhibition; series mostly up to 57.5 µM.
Procedure, shortened: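 Purified P. pyralis luciferase (10nM final) with 10uM D-luciferin and 10uM ATP (Km levels) in 50mM Tris acetate pH 7.5, 10mM Mg acetate, 0.01% Tween-20, 0.05% BSA; qHTS 6-point titration, ~60 µM downward; luminescence read.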
Further: nearly all actives have a fitted effect of over 55% in size.
Potency means the concentration at half of the fitted maximal effect; tags describe the fitted curve by direction and shape.

Chain of UniProt P08659 (P08659 whole entry, looked up): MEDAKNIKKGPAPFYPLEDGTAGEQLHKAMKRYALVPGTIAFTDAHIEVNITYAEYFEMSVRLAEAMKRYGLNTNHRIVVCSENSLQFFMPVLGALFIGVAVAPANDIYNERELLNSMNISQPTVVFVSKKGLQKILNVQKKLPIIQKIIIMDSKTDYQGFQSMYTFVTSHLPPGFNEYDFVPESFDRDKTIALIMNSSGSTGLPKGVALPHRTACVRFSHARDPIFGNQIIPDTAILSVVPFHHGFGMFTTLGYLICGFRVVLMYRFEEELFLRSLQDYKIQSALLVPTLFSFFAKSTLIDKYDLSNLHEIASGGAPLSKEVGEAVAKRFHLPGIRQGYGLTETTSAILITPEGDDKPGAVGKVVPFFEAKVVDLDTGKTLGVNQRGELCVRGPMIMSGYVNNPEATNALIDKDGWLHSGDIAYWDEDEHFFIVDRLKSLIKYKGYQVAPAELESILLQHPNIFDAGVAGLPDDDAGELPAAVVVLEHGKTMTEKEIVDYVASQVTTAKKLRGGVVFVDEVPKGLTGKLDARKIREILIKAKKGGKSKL

Structure (SMILES)	Potency
O=C(COC(=O)c1ncc(Cl)c(Cl)c1Cl)Nc1cccnc1Cl	inactive
CNc1ccccc(-c2ccc3cc4c(cc3n2)OCO4)c1=O	active: 3.38 µM
O=C(CSc1ccc(-c2ccc(F)cc2)nn1)N1CCCCC1	inconclusive: 23.9 µM [inhibitor, single point]
Cc1cc(NC(=O)c2ccccc2)n(C(C)(C)C)n1	inactive
CCOC(=O)c1cnc2ccc(C(=O)OC)cc2c1Nc1ccc(C(=O)O)cc1	inconclusive: 37.9 µM [inhibitor, partial curve, poor fit]
O=C(NCc1cccnc1)Nc1cccc(NC(=O)NCc2cccnc2)c1	inconclusive: 26.9 µM [inhibitor, partial curve, poor fit]
Cc1nc2nc[nH]n2c(=O)c1CCOC(=O)c1ccccc1F	active: 10.7 µM
O=C(NC(=O)c1ccccc1F)OCc1ccc(Cl)cc1Cl	active: 12 µM
O=C(Nc1ccccc1N1CCOCC1)c1cc2ccccc2o1	active: 9.53 µM
CC#CC(=O)N1CCCC(Cc2cccc(OC)c2)(C(=O)OCC)C1 (centres undefined)	active: 23.9 µM
O=S(=O)(NC1CCCC1)c1cccc(-c2nnc(-c3ccccc3)o2)c1	inconclusive: 21.3 µM [inhibitor, partial curve, poor fit]
COc1ccc(N=C2S/C(=C\c3ccc(N4CCOCC4)o3)C(=O)N2CCc2c[nH]c3ccccc23)cc1	inconclusive: 33.8 µM [inhibitor, partial curve, poor fit]
C/C(=N\NC(N)=S)C1(C)CCCCC1	inconclusive: 30.1 µM [inhibitor, partial curve, poor fit]
Cn1cccc1C(=O)C(=O)Nc1ccccc1	active: 5.36 µM
Cc1ccc(-c2cc(N)on2)cc1	active: 16.9 µM
C/C(=N\NC(=O)COc1ccccc1F)c1cc2ccccc2o1	active: 10.7 µM
O=C(Nc1nc2ccc(F)cc2s1)c1nc(S(=O)(=O)Cc2ccccc2)ncc1Cl	inconclusive: 7.57 µM [inhibitor, full curve]
O=C(c1ccc2c(c1)N(Cc1ccc(Cl)cc1)C(=O)c1ccccc1S2(=O)=O)N1CCCCC1	inactive
CCOC(=O)N1CCC(NC(=O)Cn2cc3c(n2)CCC(C)C3)CC1 (centres undefined)	inactive
O=C(COC(=O)Cn1cnc2ccccc21)Nc1ccc2c(c1)C(=O)c1ccccc1C2=O	inconclusive: 19 µM [inhibitor, partial curve, poor fit]
Cc1nnc(N/N=C/c2c(O)n(-c3cccc(C(F)(F)F)c3)c(=O)c3ccccc23)[nH]c1=O	inconclusive: 30.1 µM [inhibitor, partial curve, poor fit]
Cc1ccc(NC(=O)CN2C(=O)C3C4C=CC(C4)C3C2=O)cc1 (centres undefined)	inactive
NC(=O)c1ccccc1N=Cc1ccc2ccccc2c1	inconclusive: 12 µM [inhibitor, partial curve]
c1ccc(CCCc2nc(-c3ccccn3)no2)cc1	active: 16.9 µM
Cc1ccc(-n2c(=O)c3oc4ccccc4c3n(Cc3ccccc3F)c2=O)cc1C	inactive
CCC(C)NC(=O)C(=O)Nc1c2c(nn1-c1ccccc1)CS(=O)(=O)C2 (centres undefined)	inactive
COCCN=C1Sc2nc3ccc(C)cc3cc2CN1Cc1cccs1	inconclusive: 16.9 µM [inhibitor, partial curve]

Structure (SMILES)	Potency
Nc1ccc2ncccc2c1	inactive
Cc1onc(-c2ccccc2Cl)c1C(=O)Nc1ccc(-c2cn3cccnc3n2)cc1	inactive
COc1ccc2cc(C3=CCCCC3)ncc2c1	active: 0.849 µM
CCOc1ccc2nc(NC(=O)CSCC(=O)Nc3cc(C)on3)sc2c1	inconclusive: 2.69 µM [inhibitor, partial curve]
Cc1cccc(OCc2nc(-c3ccc(Br)o3)no2)c1	inconclusive: 21.3 µM [inhibitor, partial curve, poor fit]
Cc1cccc(C2CC(=O)Oc3c2c(=O)n(C)c2ccccc32)c1 (centres undefined)	inconclusive: 10.7 µM [inhibitor, partial curve]
Cc1ccc(S(=O)(=O)Nc2ccc(N=Nc3ccc(O)cc3)cc2)cc1	inactive
COc1ccc(C2=NS(=O)(=O)N(C)C(C(=O)NCc3ccc4c(c3)OCO4)=C2)cc1	inconclusive: 30.1 µM [inhibitor, single point]
C#CCOC(=O)/C(=C/C=C/c1ccccc1)NC(=O)c1ccccc1	inconclusive: 23.9 µM [inhibitor, single point]
CC(C)(C)C(=O)Nc1nnc(SCC(=O)NCc2ccco2)s1	inactive
COC(=O)C1=C(C)N(c2ccccc2)C(=S)NC1c1ccccc1C(F)(F)F (centres undefined)	inactive
CC(C)N1CCc2c(sc(NC(=O)c3cc(-c4cccs4)nc4ccccc34)c2C(N)=O)C1	inactive
C(=C\c1nc(N2CCCCCC2)c2ccccc2n1)/c1ccccc1	active: 8.49 µM
CCCCOc1ccc(CNC(=O)CCCN2C(=O)CSc3c2c(C)nn3-c2ccccc2)cc1	inactive
CC(C)(C)c1ccc(/C=N/N2C(=O)CSC2=S)cc1	active: 16.9 µM
COc1ccccc1NC(=O)CN1C(=O)C2(SCC(=O)N2c2ccc(C)c(C)c2)c2ccccc21 (centres undefined)	inactive
Cc1ccc(C)c(NC(=O)c2cnn3ccccc23)c1	inconclusive: 21.3 µM [inhibitor, partial curve, poor fit]
O=C(CSc1ccc2ccccc2c1)Nn1cnnc1	inconclusive: 33.8 µM [inhibitor, partial curve, poor fit]
COc1cccc(NC(=O)CSc2nnc(CNC(=O)c3ccccc3F)o2)c1	inactive
Nc1ccccc1C(=O)Nc1cccc2ccccc12	active: 19 µM
Cc1ccc(C(=O)COC(=O)COc2ccccc2C)cc1	inconclusive: 16.9 µM [inhibitor, partial curve]
CCc1nc(Nc2ccccc2)c2oc3ccccc3c2n1	inconclusive: 37.9 µM [inhibitor, partial curve, poor fit]
Cc1ccc(-n2c(C)nnc2SCC(=O)NNC(=O)c2ccco2)cc1	inactive
O=[N+]([O-])c1cc2cccnc2c2ncccc12	inactive
O=c1cnc(-c2ccc(Cl)cc2)cn1O	inconclusive: 12 µM [inhibitor, partial curve, poor fit]
CCOc1ccc(NC(=O)Cn2ccn(-c3ccc(F)c(F)c3)c(=O)c2=O)cc1	inactive
O=C(CN1CCN(Cc2ccccc2)CC1)N/N=C/c1c[nH]c2ccccc12	inactive

Structure (SMILES)	Potency
COc1ccc(NC(=O)CCC(=O)c2cccs2)cc1S(=O)(=O)Nc1ccc(Cl)cc1	inactive
COc1ccc(/C=C2/SC(=S)N(c3ccc(S(=O)(=O)Nc4nccs4)cc3)C2=O)cc1	inconclusive: 37.9 µM [inhibitor, single point]
COCCN1CCN(c2c3c(nc4cc(-c5cccc(F)c5)nn24)CCC3)CC1	inactive
CCOCCSc1c(C)cnc2c1c(=O)n(C)c(=O)n2C	inconclusive: 21.3 µM [inhibitor, partial curve, poor fit]
O=c1[nH][nH]cc1C=Nc1ccccc1O	inactive
Cc1ccnc(NC(=O)c2cccc(NC(=O)Cc3ccccc3)c2)c1	inconclusive: 23.9 µM [inhibitor, partial curve]
Cc1nc2ccccc2c(=O)n1NC(=O)c1ccccc1	inactive
Cc1ccc(S(=O)(=O)N2CC=C(C(=O)NCc3ccc(F)cc3)CC2)cc1	inconclusive: 37.9 µM [inhibitor, partial curve, poor fit]
CCOc1ccc(/C=C\C(C)=N\O)cc1	active: 8.49 µM
Nc1cccnc1Sc1cc(Cl)c(Cl)cc1Cl	inconclusive: 30.1 µM [inhibitor, partial curve, poor fit]
Cc1ccc2nc(-c3cccc(S(=O)(=O)N4CCCC4)c3)cn2c1	active: 6.75 µM
Cc1ccccc1C(=O)Nc1ccc2c(c1)OCO2	active: 4.78 µM
CCN(CC)S(=O)(=O)c1cccc(C(=O)N/N=C/c2ccc(O)c(O)c2O)c1	inconclusive: 30.1 µM [inhibitor, partial curve, poor fit]
O=C(Nc1ccccc1Cl)c1cccs1	inconclusive: 21.3 µM [inhibitor, partial curve, poor fit]
CCOc1ccc(NC(=O)c2nnn(CC(=O)Nc3ccccc3OC)c2N)cc1	active: 2.69 µM
Cc1oc(-c2cc(F)ccc2F)nc1CN1CCN(c2ncnc3ccccc23)CC1	active: 26.9 µM
CN(C(=O)c1ccc(NC(=O)Cc2ccc(NC(=O)C3CCCN(C(=O)CCc4ccccc4)C3)cc2)cc1)C1CC1 (centres undefined)	inconclusive: 14.1 µM [inhibitor, partial curve, poor fit]
N#C/C(=C(/O)c1cc2ccccc2o1)c1nc2ccccc2s1	active: 6.75 µM
O=C(Cn1cc(SCc2ccc(C(F)(F)F)cc2)c2ccccc21)N1CCCC1	inconclusive: 30.1 µM [inhibitor, single point]
O=C(COC(=O)c1ccc(Cl)cc1O)NCCN1C(=O)CSC1=O	inactive
Cc1cc(C)c(C#N)c(SCc2[nH]nc3c2C(c2ccc(F)cc2)C(C#N)=C(N)O3)n1 (centres undefined)	inconclusive: 30.1 µM [inhibitor, partial curve, poor fit]
COc1ccc(-c2cc(C(=O)NCc3ccc(F)cc3)c3c(-c4ccc(F)cc4)[nH]nc3n2)cc1OC	inactive
C=CCN(CC=C)CCOc1ccc2ccccc2c1	inactive
COc1ccc(/C=N/NC(=O)c2ccccc2O)cc1Cn1nnc2ccccc21	active: 21.3 µM
O=C(NCc1nc2ccccc2[nH]1)C1=C[C@H](c2ccc3c(c2)OCO3)C[C@H](OCc2ccc(CO)cc2)O1	inactive
